Results: the supplement of paper PMC11876631
± gives the standard deviation of the averaged measurements. Laboratory Escherichia coli strains with one amino-acid change in an essential protein, pooled on minimal glucose agar with carbenicillin or gentamicin at twice the control MIC (plus kanamycin and chloramphenicol for the plasmids), 48 h. Fold change of barcode share against drug-free plates; higher = less susceptible. Active = above 20 in both replicates (the paper's putatively resistant). '<' = one read or none on drug, '>' = one read or none on a drug-free plate. Shares are relative, so most strains fall below 1 when a few take over. Listed are strains with at least 15 reads on both drug-free plates, and hits; most hits rest on fewer reference reads. Replicate rank correlation about 0.5. Edits are read from barcodes.

B1: lolC M165Q (protein)
chain: MYQPVALFIGLRYMRGRAADRFGRFVSWLSTIGITLGVMALVTVLSVMNGFERELQNNILGLMPQAILSSEHGSLNPQQLPETAVKLDGVNRVAPITTGDVVLQSARSVAVGVMLGIDPAQKDPLTPYLVNVKQTDLEPGKYNVILGEQLASQLGVNRGDQIRVQVPSASQFTPMGRIPSQRLFNVIGTFAANSEVDGYEMLVNIEDASRLMRYPAGNITGWRLWLDEPLKVDSLSQQKLPEGSKWQDWRDRKGELFQAVRMEKNMMGLLLSLIVAVAAFNIITSLGLMVMEKQGEVAILQTQGLTPRQIMMVFMVQGASAGIIGAILGAALGALLASQLNNLMPIIGVLLDGAALPVAIEPLQVIVIALVAMAIALLSTLYPSWRAAATQPAEALRYE
B2: lolC I59A (protein)
chain: MYQPVALFIGLRYMRGRAADRFGRFVSWLSTIGITLGVMALVTVLSVMNGFERELQNNALGLMPQAILSSEHGSLNPQQLPETAVKLDGVNRVAPITTGDVVLQSARSVAVGVMLGIDPAQKDPLTPYLVNVKQTDLEPGKYNVILGEQLASQLGVNRGDQIRVMVPSASQFTPMGRIPSQRLFNVIGTFAANSEVDGYEMLVNIEDASRLMRYPAGNITGWRLWLDEPLKVDSLSQQKLPEGSKWQDWRDRKGELFQAVRMEKNMMGLLLSLIVAVAAFNIITSLGLMVMEKQGEVAILQTQGLTPRQIMMVFMVQGASAGIIGAILGAALGALLASQLNNLMPIIGVLLDGAALPVAIEPLQVIVIALVAMAIALLSTLYPSWRAAATQPAEALRYE
B3: lolC M165P (protein)
chain: MYQPVALFIGLRYMRGRAADRFGRFVSWLSTIGITLGVMALVTVLSVMNGFERELQNNILGLMPQAILSSEHGSLNPQQLPETAVKLDGVNRVAPITTGDVVLQSARSVAVGVMLGIDPAQKDPLTPYLVNVKQTDLEPGKYNVILGEQLASQLGVNRGDQIRVPVPSASQFTPMGRIPSQRLFNVIGTFAANSEVDGYEMLVNIEDASRLMRYPAGNITGWRLWLDEPLKVDSLSQQKLPEGSKWQDWRDRKGELFQAVRMEKNMMGLLLSLIVAVAAFNIITSLGLMVMEKQGEVAILQTQGLTPRQIMMVFMVQGASAGIIGAILGAALGALLASQLNNLMPIIGVLLDGAALPVAIEPLQVIVIALVAMAIALLSTLYPSWRAAATQPAEALRYE
B4: lolC F184D (protein)
chain: MYQPVALFIGLRYMRGRAADRFGRFVSWLSTIGITLGVMALVTVLSVMNGFERELQNNILGLMPQAILSSEHGSLNPQQLPETAVKLDGVNRVAPITTGDVVLQSARSVAVGVMLGIDPAQKDPLTPYLVNVKQTDLEPGKYNVILGEQLASQLGVNRGDQIRVMVPSASQFTPMGRIPSQRLDNVIGTFAANSEVDGYEMLVNIEDASRLMRYPAGNITGWRLWLDEPLKVDSLSQQKLPEGSKWQDWRDRKGELFQAVRMEKNMMGLLLSLIVAVAAFNIITSLGLMVMEKQGEVAILQTQGLTPRQIMMVFMVQGASAGIIGAILGAALGALLASQLNNLMPIIGVLLDGAALPVAIEPLQVIVIALVAMAIALLSTLYPSWRAAATQPAEALRYE
B5: lolC F184Q (protein)
chain: MYQPVALFIGLRYMRGRAADRFGRFVSWLSTIGITLGVMALVTVLSVMNGFERELQNNILGLMPQAILSSEHGSLNPQQLPETAVKLDGVNRVAPITTGDVVLQSARSVAVGVMLGIDPAQKDPLTPYLVNVKQTDLEPGKYNVILGEQLASQLGVNRGDQIRVMVPSASQFTPMGRIPSQRLQNVIGTFAANSEVDGYEMLVNIEDASRLMRYPAGNITGWRLWLDEPLKVDSLSQQKLPEGSKWQDWRDRKGELFQAVRMEKNMMGLLLSLIVAVAAFNIITSLGLMVMEKQGEVAILQTQGLTPRQIMMVFMVQGASAGIIGAILGAALGALLASQLNNLMPIIGVLLDGAALPVAIEPLQVIVIALVAMAIALLSTLYPSWRAAATQPAEALRYE
B6: lolC I59W (protein)
chain: MYQPVALFIGLRYMRGRAADRFGRFVSWLSTIGITLGVMALVTVLSVMNGFERELQNNWLGLMPQAILSSEHGSLNPQQLPETAVKLDGVNRVAPITTGDVVLQSARSVAVGVMLGIDPAQKDPLTPYLVNVKQTDLEPGKYNVILGEQLASQLGVNRGDQIRVMVPSASQFTPMGRIPSQRLFNVIGTFAANSEVDGYEMLVNIEDASRLMRYPAGNITGWRLWLDEPLKVDSLSQQKLPEGSKWQDWRDRKGELFQAVRMEKNMMGLLLSLIVAVAAFNIITSLGLMVMEKQGEVAILQTQGLTPRQIMMVFMVQGASAGIIGAILGAALGALLASQLNNLMPIIGVLLDGAALPVAIEPLQVIVIALVAMAIALLSTLYPSWRAAATQPAEALRYE
B7: lolC F184W (protein)
chain: MYQPVALFIGLRYMRGRAADRFGRFVSWLSTIGITLGVMALVTVLSVMNGFERELQNNILGLMPQAILSSEHGSLNPQQLPETAVKLDGVNRVAPITTGDVVLQSARSVAVGVMLGIDPAQKDPLTPYLVNVKQTDLEPGKYNVILGEQLASQLGVNRGDQIRVMVPSASQFTPMGRIPSQRLWNVIGTFAANSEVDGYEMLVNIEDASRLMRYPAGNITGWRLWLDEPLKVDSLSQQKLPEGSKWQDWRDRKGELFQAVRMEKNMMGLLLSLIVAVAAFNIITSLGLMVMEKQGEVAILQTQGLTPRQIMMVFMVQGASAGIIGAILGAALGALLASQLNNLMPIIGVLLDGAALPVAIEPLQVIVIALVAMAIALLSTLYPSWRAAATQPAEALRYE
B8: lolC I59Q (protein)
chain: MYQPVALFIGLRYMRGRAADRFGRFVSWLSTIGITLGVMALVTVLSVMNGFERELQNNQLGLMPQAILSSEHGSLNPQQLPETAVKLDGVNRVAPITTGDVVLQSARSVAVGVMLGIDPAQKDPLTPYLVNVKQTDLEPGKYNVILGEQLASQLGVNRGDQIRVMVPSASQFTPMGRIPSQRLFNVIGTFAANSEVDGYEMLVNIEDASRLMRYPAGNITGWRLWLDEPLKVDSLSQQKLPEGSKWQDWRDRKGELFQAVRMEKNMMGLLLSLIVAVAAFNIITSLGLMVMEKQGEVAILQTQGLTPRQIMMVFMVQGASAGIIGAILGAALGALLASQLNNLMPIIGVLLDGAALPVAIEPLQVIVIALVAMAIALLSTLYPSWRAAATQPAEALRYE
B9: lolC I59D (protein)
chain: MYQPVALFIGLRYMRGRAADRFGRFVSWLSTIGITLGVMALVTVLSVMNGFERELQNNDLGLMPQAILSSEHGSLNPQQLPETAVKLDGVNRVAPITTGDVVLQSARSVAVGVMLGIDPAQKDPLTPYLVNVKQTDLEPGKYNVILGEQLASQLGVNRGDQIRVMVPSASQFTPMGRIPSQRLFNVIGTFAANSEVDGYEMLVNIEDASRLMRYPAGNITGWRLWLDEPLKVDSLSQQKLPEGSKWQDWRDRKGELFQAVRMEKNMMGLLLSLIVAVAAFNIITSLGLMVMEKQGEVAILQTQGLTPRQIMMVFMVQGASAGIIGAILGAALGALLASQLNNLMPIIGVLLDGAALPVAIEPLQVIVIALVAMAIALLSTLYPSWRAAATQPAEALRYE
B10: lolC F184A (protein)
chain: MYQPVALFIGLRYMRGRAADRFGRFVSWLSTIGITLGVMALVTVLSVMNGFERELQNNILGLMPQAILSSEHGSLNPQQLPETAVKLDGVNRVAPITTGDVVLQSARSVAVGVMLGIDPAQKDPLTPYLVNVKQTDLEPGKYNVILGEQLASQLGVNRGDQIRVMVPSASQFTPMGRIPSQRLANVIGTFAANSEVDGYEMLVNIEDASRLMRYPAGNITGWRLWLDEPLKVDSLSQQKLPEGSKWQDWRDRKGELFQAVRMEKNMMGLLLSLIVAVAAFNIITSLGLMVMEKQGEVAILQTQGLTPRQIMMVFMVQGASAGIIGAILGAALGALLASQLNNLMPIIGVLLDGAALPVAIEPLQVIVIALVAMAIALLSTLYPSWRAAATQPAEALRYE
B11: aroC L336A (protein)
chain: MAGNTIGQLFRVTTFGESHGLALGCIVDGVPPGIPLTEADLQHDLDRRRPGTSRYTTQRREPDQVKILSGVFEGVTTGTSIGLLIENTDQRSQDYSAIKDVFRPGHADYTYEQKYGLRDYRGGGRSSARETAMRVAAGAIAKKYLAEKFGIEIRGCLTQMGDIPLDIKDWSQVEQNPFFCPDPDKIDALDELMRALKKEGDSIGAKVTVVASGVPAGLGEPVFDRLDADIAHALMSINAVKGVEIGDGFDVVALRGSQNRDEITKDGFQSNHAGGILGGISSGQQIIAHMALKPTSSITVPGRTINRFGEEVEMITKGRHDPCVGIRAVPIAEAMAAIVLMDHLLRQRAQNADVKTDIPRW
B12: lolD L25A (protein)
chain: MNKILLQCDNLCKRYQEGSVQTDVAHNVSFSVGEGEMMAIVGSSGSGKSTLLHLLGGLDTPTSGDVIFNGQPMSKLSSAAKAELRNQKLGFIYQFHHLLPDFTALENVAMPLLIGKKKPAEINSRALEMLKAVGLDHRANHRPSELSGGERQRVAIARALVNNPRLVLADEPTGNLDARNADSIFQLLGELNRLQGTAFLVVTHDLQLAKRMSRQLEMRDGRLTAELSLMGAE
B13: lolD L25W (protein)
chain: MNKILLQCDNLCKRYQEGSVQTDVWHNVSFSVGEGEMMAIVGSSGSGKSTLLHLLGGLDTPTSGDVIFNGQPMSKLSSAAKAELRNQKLGFIYQFHHLLPDFTALENVAMPLLIGKKKPAEINSRALEMLKAVGLDHRANHRPSELSGGERQRVAIARALVNNPRLVLADEPTGNLDARNADSIFQLLGELNRLQGTAFLVVTHDLQLAKRMSRQLEMRDGRLTAELSLMGAE

Target: Escherichia coli (laboratory strain)
Assay: barcode share on antibiotic plates over drug-free plates; higher = less susceptible
Experimental: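 A pool of E. coli strains, each edited to carry one amino-acid change in an essential protein, was grown for 48 h on minimal glucose agar with or without antibiotic; strain barcodes were sequenced; mean of two replicates.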

[1] = antibiotic: carbenicillin, 2× MIC (3.1 µg/mL)
[2] = antibiotic: gentamicin, 2× MIC (MIC 0.45 µg/mL)

| Protein | fold change of barcode share [1] | fold change of barcode share [2] |
| --- | --- | --- |
| B1 | 0.417 ± 0.12 | < 0.00607 |
| B2 | 0.321 ± 0.21 | < 0.0108 |
| B3 | 0.324 ± 0.15 | < 0.0192 |
| B4 | 0.288 ± 0.17 | 0.0166 ± 0.011 |
| B5 | 0.376 ± 0.24 | < 0.00911 |
| B6 | 0.33 ± 0.27 |  |
| B7 | 0.432 ± 0.26 | 0.0104 ± 0.0051 |
| B8 | 0.323 ± 0.23 | 0.0232 ± 0.017 |
| B9 | 0.268 ± 0.049 | 0.0291 ± 0.014 |
| B10 | 0.273 ± 0.072 | < 0.00552 |
| B11 | 0.564 ± 0.018 | 0.458 ± 0.64 |
| B12 | 1.14 ± 1.4 | 0.0115 ± 0.013 |
| B13 | 0.487 ± 0.21 | < 0.00641 |
